“And” between values parts separate entries of the source, which are not always exact repeats. Equal values may be shown once. Screen size: about 110,000 compounds; about 230 (0.21%) showed an effect of 50% or more. The list shows a part of the results.
Molecular target: DPAP1 (Plasmodium falciparum, UniProt Q8IIJ9)
Test: primary screen, percent inhibition; read by cleavage of a fluorogenic dipeptide substrate; higher = more effect of the substance
Set-up: species or system P. falciparum D10 trophozoite lysates; single well
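Also: 30 min substrate incubation versus DMSO and 10 µM JCP410 controls.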

Sequence of DPAP1 (Q8IIJ9 whole entry, looked up): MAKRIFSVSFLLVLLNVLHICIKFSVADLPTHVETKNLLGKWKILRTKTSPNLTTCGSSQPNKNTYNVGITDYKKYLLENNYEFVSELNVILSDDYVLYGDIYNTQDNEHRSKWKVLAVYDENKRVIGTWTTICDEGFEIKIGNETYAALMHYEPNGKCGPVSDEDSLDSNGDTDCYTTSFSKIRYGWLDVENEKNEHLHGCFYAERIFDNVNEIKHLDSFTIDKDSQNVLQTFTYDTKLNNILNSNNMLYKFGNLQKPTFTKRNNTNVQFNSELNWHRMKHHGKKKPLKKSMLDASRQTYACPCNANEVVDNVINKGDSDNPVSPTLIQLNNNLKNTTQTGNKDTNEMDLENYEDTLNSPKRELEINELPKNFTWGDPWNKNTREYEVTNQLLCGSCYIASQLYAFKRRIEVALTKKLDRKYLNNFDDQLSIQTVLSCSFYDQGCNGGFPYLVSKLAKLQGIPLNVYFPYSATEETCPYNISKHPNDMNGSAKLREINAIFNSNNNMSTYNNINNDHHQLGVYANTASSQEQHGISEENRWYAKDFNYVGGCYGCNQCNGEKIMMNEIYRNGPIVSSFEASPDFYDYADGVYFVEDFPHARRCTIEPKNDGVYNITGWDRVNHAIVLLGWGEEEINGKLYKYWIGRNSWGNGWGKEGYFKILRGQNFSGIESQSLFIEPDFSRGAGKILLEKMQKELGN

Compound	% Inhibition @ 10 uM
COc1cccc2c1cc1c(=O)n(CC(=O)N3CCN(c4ncccn4)CC3)nc(C)n12	6.35%
CCC(=O)c1c(O)oc2ccccc2c1=O	-8.86%
CCc1nn(CC(=O)N2CCCCC2C)c(=O)c2cc3occc3n12 (centres unmarked)	-2%
Cc1ccc2c(c1)[C@H]1OCC[C@H]1[C@@H](c1cccs1)N2	5.99%
O=C(c1ccc2nc(-c3ccccc3)c(-c3ccccc3)nc2c1)N1CCOCC1	0.775%
c1cncc(CNc2ncnc3c2nc2n3CCCCC2)c1	3.96%
CC(=O)N/C(=C/c1ccccc1Br)C(=O)NC1CCCCCC1	-0.469%
CCCCN1C(=O)c2[nH]nc(-c3ccccc3O)c2C1c1cc(OC)c(OC)c(OC)c1 (centres unmarked)	-9.07%
Cc1cc(C)nc(SCCN2CCCCC2)n1	-0.267% and 6.6%
O=C(Cc1ccccc1[N+](=O)[O-])c1ccccc1	3.34%
COc1ccc(OC2CCN(S(=O)(=O)c3cccc(S(=O)(=O)N4CCOCC4)c3)CC2)cc1	-2.84%
Cc1ccccc1C(=O)Nc1cccc(Cl)c1Cl	-1.22%
CCCNC(=O)c1ccc(CN2CC(=O)N3CCCCC3C2=O)cc1 (centres unmarked)	3.95%
CN(C1CCCCC1)S(=O)(=O)N1CCCC(C(=O)NCCc2cccs2)C1 (centres unmarked)	-6.93%
C=CCc1cccc2cc(C(=O)N3CCCCC3)c(=O)oc12	-3.79%
O=C1CC(c2ccccc2)C(C(=O)O)N1 (centres unmarked)	1.8%
CCOc1ccccc1C1C(C(=O)N2CCOCC2)=C(C)Nc2nc3ccccc3n21 (centres unmarked)	7.83%
O=[N+]([O-])c1ccccc1S(=O)(=O)N1CCCCC1	-3.62%
CC(C)(C)OC(=O)N[C@@H](Cc1ccccc1)C(=O)NCC#N	-1.83%
CCCCNC(=O)C1CCCNC1=O (centres unmarked)	2.03%
CN1C(=O)C(=CNCC2CCNCC2)C(=O)N(C)C1=O	-7.09%
O=c1oc(-c2ccccc2)nc2cc3ccccc3cc12	-5.2%
CC1CCCCN1C(=O)c1ccccc1Cl (centres unmarked)	5.43%
Cc1[nH]c2ccccc2c1C1CCN(S(=O)(=O)c2ccc(C(C)(C)C)cc2)CC1	0.66%
Cc1ccccc1-c1nc2c(c(SCc3ccncc3)n1)Cc1c(CO)cnc(C)c1O2	-1.97%
CN(C1CCCCC1)S(=O)(=O)N1CCCC(C(=O)N2CCN(c3ncccn3)CC2)C1 (centres unmarked)	-7.21%

Compound	% Inhibition @ 10 uM
O=C(/C=C/c1ccccc1)Nc1cccc([N+](=O)[O-])c1	1.29%
O=S(=O)(c1ccc(Cl)cc1Br)N1CCCCC1	1.13%
COc1ccc(OC)c(NC(C)C)c1	5.92%
CCC(=O)Nc1ncc2c(n1)CC(c1ccc(C(C)(C)C)cc1)CC2=O (centres unmarked)	-5.23%
CS(=O)(=O)N(CC(=O)N1CCCCC1)c1cc(Cl)cc(Cl)c1	-1.12%
COc1ccc(C=C2C(=O)NC(=O)NC2=O)cc1[N+](=O)[O-]	-5.94%
Cc1nn(-c2ccccc2)c2c1N(CC(=O)NCCCN1CCc3ccccc3C1)C(=O)CS2	-3.98%
O=C(CSc1ccc(Cl)cc1)NCCCN1CCOCC1	-1.42%
CC(C)(C)NS(=O)(=O)c1ccc(NC(=O)c2ccc(Br)cc2)cc1	-2.03%
COc1ccc(CN2C(=O)c3cccnc3C2=O)cc1S(=O)(=O)NC(c1cccs1)C(C)C (centres unmarked)	-5.09%
CC(C)CC(C(=O)Nc1cccc(O)c1)N1C(=O)c2ccccc2C1=O (centres unmarked)	-5.38%
COC(=O)c1sc(NS(=O)(=O)c2cccc3nsnc23)c(C(=O)OC)c1C	-5.57%
Cc1cc(C)nc(SCC(=O)Nc2cc(Cl)cc(Cl)c2)n1	-7.14%
Cc1ccc(NC(=O)c2c(N)sc3c2CCCC3)cc1C	27.9%
CCCCn1ncc(O)c(OC)c1=O	3.48%
CCNC(=O)c1ccc2c(c1)c(C)c(C)n2Cc1ccc(F)cc1	-0.48%
Cc1cc(Br)ccc1OCC(=O)Nc1ccc(S(=O)(=O)Nc2ccc(F)cc2)cc1	3.35%
Cc1cc(N2CCOCC2)ccc1/C=C1\S/C(=N/c2ccc(N3CCOCC3)cc2)N(C)C1=O	-3.04%
CN(C)CCNC(=O)COc1ccc(Cl)cc1	-14.9%
COc1ccc(C(=O)N2CC(C)N(C(=O)c3ccc(OC)c(OC)c3)CC2C)cc1OC (centres unmarked)	-1.95%
Cc1cccn2c(=O)c(/C=C(\C#N)C(=O)N3CCOCC3)c(Oc3ccccc3Cl)nc12	0.315%
Cc1ccc(CS(=O)(=O)Cc2ccc(C(=O)NCCCN3CCOCC3)o2)cc1	2.18%
COc1ccc(Br)cc1CNC(=O)C(C)n1ncn2cccc2c1=O (centres unmarked)	-8.43%
CC(C)=C(C#N)n1cnc2ccccc21	4.41%
Cc1cc(N2CCOCC2)nc(N2CCOCC2)n1	1.31%
CCc1ccc(C2CC(=O)N=C(NC(=O)c3cc(OC)c(OC)c(OC)c3)N2)cc1 (centres unmarked)	-3.62%

Compound	% Inhibition @ 10 uM
Cc1ccc(-n2ncc3c(NC(C)(C)C)ncnc32)c(C)c1	2.72%
O=C(Nc1cccc2c1CCCC2)c1ccccc1F	3.53%
Cc1ccc(-c2nc(CN(C)C)cc(CN(C)C)c2O)cc1	-3.65%
Cc1nnc(SCc2ccccc2)nc1O	-3.66% and -7.27%
COc1ccc(C2CC(=O)OC3=C2C(=O)c2ccccc2C3=O)c(OC)c1 (centres unmarked)	5.93%
Cc1cc(C)cc(NC(=O)C2C3C=CC(O3)C2C(=O)O)c1 (centres unmarked)	3.69%
CCOc1ccc(-c2cc(C(=O)NCC3CCCO3)c3ccccc3n2)cc1 (centres unmarked)	-2.84%
CN(Cc1ccccc1)C(=O)c1cc(-c2ccc3c(c2)OCO3)on1	-6.45%
Cc1ccccc1NC(=O)c1ccc(C(=O)Nc2ccccc2C)cc1	3.33%
COc1ccc(S(=O)(=O)Nc2cccc(-c3cn4cccc(C)c4n3)c2)cc1C	-5.81%
C=CCOc1c(Cl)cc(CNc2ccc3[nH]c(O)nc3c2)cc1OC	0.907%
COc1ccc(C(=O)Nc2ccc(S(=O)(=O)N3CCC(C)CC3)cc2)cc1OC	21.2%
CCc1ccc(OCC(=O)N(Cc2nc(-c3ccccc3)no2)C(C)C)c(Br)c1	0.232%
COc1ccc(OC)c(NS(=O)(=O)c2ccc(F)cc2)c1	2.22%
O=C(COc1ccc(Cl)cc1Cl)NC1CCS(=O)(=O)C1 (centres unmarked)	-0.48%
Cc1ccc(C(=O)NCC2CCCO2)cc1 (centres unmarked)	-3.94%
N#CCCNCc1ccccc1	2.4%
Cn1c(C(=O)O)c(CNCc2ccco2)c2ccccc21	3.54%
COCCNC(=O)CS(=O)(=O)Cc1nc(-c2ccccc2Cl)oc1C	0.44%
COc1ccc(Cl)cc1C(=O)Nc1nnc(C(C)C)s1	5.12%
O=C(NCc1ccc2c(c1)OCO2)c1cccc(F)c1	3.79%
O=C(NCC1CCCO1)c1cnn2c1NC(c1ccc(Br)cc1)CC2C(F)(F)F (centres unmarked)	-2.53%
COc1ccc(-c2cc(-c3ccc(Cl)cc3)n3ncnc3n2)cc1OC	1.97%
CC(=O)ONc1ccc(NC=C2C(=O)N(C)C(=O)N(C)C2=O)cc1	8.6%
CCOC(=O)N1CCN(C(=O)C2c3cc(OC)c(OC)cc3C(=O)N(C)C2c2cccnc2)CC1 (centres unmarked)	-2.12%
COc1ccccc1/C=C1\N=C(c2ccc(C)cc2)OC1=O	-0.441%

Compound	% Inhibition @ 10 uM
CCn1c(C(=O)O)c(CNC2CCCCCCC2)c2ccc(OC)cc21	-5.68%
CCOC(=O)c1cc(-c2ccc(OC)cc2)nc2ccccc12	8.6%
Cc1cc2c(cc1C)C(c1ccsc1)CC(=O)N2 (centres unmarked)	-1.28%
C=CCOc1ccc(C(=O)N(Cc2ccc(C)o2)C2CCS(=O)(=O)C2)cc1 (centres unmarked)	-2.85%
Cc1nnc(N2CCC(C(=O)NC(C)(C)C)CC2)c2nn(-c3ccc(Cl)cc3)c(C)c12	9.2%
CCOC(=O)C1CCCN(Cc2ccccc2Br)C1 (centres unmarked)	-0.192%
COc1ccccc1CC(=N)NOC(=O)COc1ccc(C(C)(C)C)cc1	1.96%
CCOc1ccccc1NC(=O)Cc1cccc2ccccc12	0.843%
CCC/N=c1\c(NS(=O)(=O)c2ccc(CC(C)C)cc2)c(O)oc2ccccc12	5.41%
O=C(Nc1ccccc1C(=O)N1CCCCC1)c1cccs1	-4.39%
CSc1ccc(CN2CCN(Cc3ccccc3Cl)CC2)cc1	10%
CC(C)COC(=O)N1CC(O)CC1C(=O)Nc1ccc(C23C[C@H]4C[C@@H](C2)C[C@@H](C3)C4)cc1 (some centres unmarked)	9.19%
CN1CCN(Cc2c(Cl)cccc2Cl)CC1	-5.42%
Cc1cc(C(F)F)n2nc(C(=O)Nc3ccc(Cl)c(C(F)(F)F)c3)nc2n1	0.431%
CS(=O)(=O)N(CCc1ccccc1)CC(=O)N1CCN(c2ccccc2F)CC1	-7.17%
CCC(C)c1c(O)nc(S)nc1O (centres unmarked)	0.0792%
CCOc1ccc(-c2nc(Cn3c(=O)cc(C)c4c(C)nn(-c5cccc(F)c5)c43)c(C)o2)cc1	3.47%
CN(Cc1ccco1)C(=O)Nc1cn(C)c(=O)c2ccccc12	5.62%
O=C1CC(N2CCN(c3ccc(F)cc3)CC2)C(=O)N1c1cccc(C(F)(F)F)c1 (centres unmarked)	-5.67%
COc1ccc(OC)c(CN2CCN(c3ccccc3F)CC2)c1	-3.65%
CNC(=S)C12CC3CC(CC(Cl)(C3)C1)C2	1.12%
Cc1ccc(C(=O)Nc2sc3c(c2C#N)CC(C)(C)NC3(C)C)cc1	-0.941%
Cc1ccc(C)n1-c1nnc(N2CCC(C(=O)N3CCC4(CC3)OCCO4)CC2)s1	-4.15%

Source: publication PMC6919601, “Identification of Plasmodium dipeptidyl aminopeptidase allosteric inhibitors by high throughput screening” (PLoS ONE, 2019)
